{"source": "PubChem BioAssay AID1508624", "about": "(National Center for Advancing Translational Sciences (NCATS), 2021)", "note": "In all, about 48,000 compounds went through this assay and about 120 (0.25%) were called active. About 4% were inconclusive and are not listed. Calls follow the shape of the dose curve; as a rule, active = well fitted activation curve with a large enough effect; inconclusive = small, poorly fitted or top-dose-only effect, or another doubt; inactive = no such curve, though single readings can be large or run the other way. This is one part of the list.", "data": [{"assay": "Primary qHTS for Identification of Small Molecule Activators of Huntingtin-Antisense Promoter Activity; also: nearly all actives have a fitted effect of over 55% in size", "conditions": "HEK293 HTT-AS promoter firefly luciferase reporter (activity 0% = vehicle and -100% = no light), 24 h; series mostly up to 57.5 µM; activity change, positive = activation: at the top concentration", "procedure,_shortened": "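HEK293 Fluc reporter, 2,500 cells/well, 24 h pre-culture; cpds up to 57.5 uM final, 24 h 37 degrees C; Dual-Glo, 10 min RT; normalized vehicle = 0%, zero RLU = -100%.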", "values": [{"smiles": "Cc1nc(SCC(=O)Nc2ccc(C)c(Cl)c2)cc(-c2ccccc2)n1", "activity change, positive = activation": "inactive: -22.2%"}, {"smiles": "CCOc1ccc(C(=O)Oc2c(Sc3ccccc3)c(C)nn2C(C)(C)C)cc1OCC", "activity change, positive = activation": "inactive: -42.6%"}, {"smiles": "COc1ccc(CN(Cc2ccco2)C(=O)COc2ccccc2OC)cc1", "activity change, positive = activation": "inactive: -13.6%"}, {"smiles": "Nc1ncnc2c1nc(Cl)n2[C@@H]1O[C@H](CO)[C@@H](O)[C@@H]1O", "activity change, positive = activation": "inactive: -29.9%"}, {"smiles": "CCc1ccccc1-n1cnc2cc(C(=O)NC3CCCCCC3)ccc21", "activity change, positive = activation": "inactive: -16.5%"}, {"smiles": "COc1ccccc1N1CCN(S(=O)(=O)c2ccc(F)c(C(=O)Nc3ccc(Cl)cc3C(F)(F)F)c2)CC1", "activity change, positive = activation": "inactive: -34.1%"}, {"smiles": "O=C(Nc1ccccc1Cl)[C@H](CSCc1ccccc1)N1Cc2ccccc2C1=O", "activity change, positive = activation": "inactive: -14.4%"}, {"smiles": "O=C(c1ccc2c(c1)CCN2S(=O)(=O)c1ccccc1)N1CCN(c2ccccc2F)CC1", "activity change, positive = activation": "inactive: 3.45%"}, {"smiles": "CCCc1nc(C(C)(C)O)c(C(=O)O)n1Cc1ccc(-c2ccccc2-c2nn[nH]n2)cc1", "activity change, positive = activation": "inactive: -15.7%"}, {"smiles": "CCOC(=O)C(CC)N1CCN(Cc2ccc(F)cc2)C(=O)C1=O", "note": "(configuration not stated)", "activity change, positive = activation": "inactive: 6.19%"}, {"smiles": "O=C(c1ccc(F)cc1)C1CCN(CCn2c(=O)[nH]c3ccccc3c2=O)CC1", "activity change, positive = activation": "inactive"}, {"smiles": "O=C(Nc1nc2c(F)cccc2s1)c1ccc(S(=O)(=O)N2CCCc3ccccc32)cc1", "activity change, positive = activation": "inactive: -8.86%"}, {"smiles": "CCn1nc(C)c2c(-c3ccccc3)cc(=O)n(C(C)C(=O)Nc3cc(C)ccc3C)c21", "note": "(configuration not stated)", "activity change, positive = activation": "inactive: -10.2%"}, {"smiles": "COc1ccc(-c2ccc(NS(=O)(=O)c3cc(C)c(C)cc3C)cc2)nn1", "activity change, positive = activation": "inactive: -30.6%"}, {"smiles": "CCc1ccc(NC(=O)Cn2nc(SC)c(S(=O)(=O)c3ccc(OC)cc3)c2N)cc1", "activity change, positive = activation": "inactive: -2.25%"}, {"smiles": "COc1ccc(N2CCN(C(=O)C(C)n3nc(C)c4sc5ccccc5c4c3=O)CC2)cc1", "note": "(configuration not stated)", "activity change, positive = activation": "inactive: 2.35%"}, {"smiles": "CCOC(=O)c1c(NC(=O)C2c3ccccc3Oc3ccccc32)sc2c1CCC(CC)C2", "note": "(configuration not stated)", "activity change, positive = activation": "inactive: -18.5%"}, {"smiles": "CCc1ccc(NC(=O)Cn2c(=O)n(CCCC(=O)NCc3ccc4c(c3)OCO4)c(=O)c3ccccc32)cc1", "activity change, positive = activation": "inactive: -31.1%"}, {"smiles": "CCS(=O)(=O)NCC(c1ccco1)N1CCN(c2ccc(F)cc2)CC1", "note": "(configuration not stated)", "activity change, positive = activation": "inactive: -24.6%"}, {"smiles": "CC(=O)C1=C(c2cccc([N+](=O)[O-])c2)N(C(C)=O)n2c(nnc2-c2ccc(C)cc2)S1", "activity change, positive = activation": "inactive: -2.53%"}, {"smiles": "CCOC(=O)c1c(S(=O)(=O)N2CCCC(C(=O)N3CCN(c4cc(C)ccc4C)CC3)C2)c(C)n(C)c1C", "note": "(configuration not stated)", "activity change, positive = activation": "inactive: 15.4%"}, {"smiles": "COc1ccc(-c2nnc(SCCOc3ccccc3C)o2)cc1OC", "activity change, positive = activation": "inactive: -6.5%"}, {"smiles": "Cc1cn(C)c(CC(=O)Nc2ccc(F)cc2Cl)c1C(=O)O", "activity change, positive = activation": "inactive: -16.5%"}, {"smiles": "O=S(=O)(c1ccc(Cl)cc1)c1nc(-c2cccs2)oc1SCc1ccccc1F", "activity change, positive = activation": "inactive: -2.58%"}, {"smiles": "Cc1cc(C)cc(OCCSc2nc3ccc(NC(=O)COc4ccccc4)cc3s2)c1", "activity change, positive = activation": "inactive: -29.3%"}, {"smiles": "NC(=O)Nc1cc(-c2cccc(F)c2)sc1C(=O)N[C@H]1CCCNC1", "activity change, positive = activation": "inactive: -32.3%"}, {"smiles": "Cc1ccc(OCC(=O)Nc2nonc2-c2ccc(Br)cc2)cc1C", "activity change, positive = activation": "inactive: -9.08%"}, {"smiles": "Cc1ccc(N2CC(NC(=O)c3cccs3)CC2=O)cc1", "note": "(configuration not stated)", "activity change, positive = activation": "inactive: -8.63%"}, {"smiles": "CCCCNC(=O)c1ccc2c(c1)N=C(CC)c1ccccc1S2", "activity change, positive = activation": "inactive: -41.4%"}, {"smiles": "O=C(CCCN1C(=O)c2cccnc2Oc2ccc(Cl)cc21)NCc1ccc(F)cc1", "activity change, positive = activation": "inactive: -21.1%"}, {"smiles": "CN1CCN(CCNC(=O)c2cnn(-c3ccc(F)cc3)c2C2CCN(C(=O)OC(C)(C)C)CC2)CC1", "activity change, positive = activation": "inactive: -4.9%"}, {"smiles": "O=C(Nc1ccccc1)Nc1nnc(SCC(=O)N2CCCCC2)s1", "activity change, positive = activation": "inactive: -15%"}, {"smiles": "Cc1ccc(N2C(=O)CSC23C(=O)N(CC(=O)NCc2ccccc2)c2ccccc23)cc1", "note": "(configuration not stated)", "activity change, positive = activation": "inactive: -22.5%"}, {"smiles": "CCOc1ccc(-n2cc(-c3ccccc3)c3c(NC4CCCC4)ncnc32)cc1", "activity change, positive = activation": "inactive: -18.6%"}, {"smiles": "O=C(CN1C(=O)C2(SCC(=O)N2c2ccc(F)cc2)c2ccccc21)NC1CCCCC1", "note": "(configuration not stated)", "activity change, positive = activation": "inactive: -6.68%"}, {"smiles": "Cc1ccc2c(c1)C(=O)OC(C(=O)Nc1ccccc1C(=O)O)C2", "note": "(configuration not stated)", "activity change, positive = activation": "inactive: 7.76%"}, {"smiles": "CC1=C(c2ccc(C)c(C)c2)S(=O)(=O)N(Cc2ccc(C(=O)Nc3cc(F)ccc3F)cc2)C1=O", "activity change, positive = activation": "inactive: -33.5%"}, {"smiles": "Cc1nn2c(C)c(C(=O)N3CCN(c4ccc(Cl)cc4)CC3)cnc2c1-c1ccc(F)cc1", "activity change, positive = activation": "inactive: 1.34%"}, {"smiles": "CCN(CC)C(=O)c1ccc(O)c(OC)c1", "activity change, positive = activation": "inactive: -0.837%"}, {"smiles": "O=S(=O)(c1ccc(-c2cnc(C3CC3)o2)cc1)N1CCN(c2ccccc2F)CC1", "activity change, positive = activation": "inactive: -3.47%"}, {"smiles": "COc1cc2c(cc1OC)n(CC(=O)c1ccc(C)cc1C)c(=O)n1nc(CCn3nc(C)cc3C)nc21", "activity change, positive = activation": "inactive: -11.2%"}, {"smiles": "O=C(NCCCN1CCN(c2cccc(Cl)c2)CC1)c1ccc2nc(Cc3ccccc3)oc2c1", "activity change, positive = activation": "inactive: -42%"}, {"smiles": "Cc1cccc(Nc2sc(C(=O)c3ccc(Cl)cc3)c(N)c2C(N)=O)c1", "activity change, positive = activation": "inactive: 9.31%"}, {"smiles": "COc1ccc(NC(=O)c2cc(-c3ccccc3F)no2)cc1", "activity change, positive = activation": "inactive: 14.3%"}, {"smiles": "COc1cccc(CNC(=O)Cn2nc(C)c3sc4ccccc4c3c2=O)c1OC", "activity change, positive = activation": "inactive: 10.8%"}, {"smiles": "Cc1cccc(C)c1OCC(=O)N(Cc1ccco1)Cc1ccco1", "activity change, positive = activation": "inactive: -13.4%"}, {"smiles": "C=Cc1ccc(Cn2c(C)c(CNCCc3ccc(OCC)cc3)c(C(=O)O)c2C)cc1", "activity change, positive = activation": "inactive: -28.6%"}]}]}
